Test results: paper PMC4336329 (PLoS ONE, 2015)
Hit rate of the full screen: of about 310,000 compounds, about 2,200 (0.71%) showed an effect of 50% or more. Effects have a minus sign here. This is one part of the list.

Target: human ether-à-go-go-related gene (hERG) potassium channel (human, UniProt Q12809)
Experiment: primary screen, population patch clamp on CHO cells stably expressing hERG

Sequence of human ether-à-go-go-related gene (hERG) potassium channel (Q12809 whole entry, looked up): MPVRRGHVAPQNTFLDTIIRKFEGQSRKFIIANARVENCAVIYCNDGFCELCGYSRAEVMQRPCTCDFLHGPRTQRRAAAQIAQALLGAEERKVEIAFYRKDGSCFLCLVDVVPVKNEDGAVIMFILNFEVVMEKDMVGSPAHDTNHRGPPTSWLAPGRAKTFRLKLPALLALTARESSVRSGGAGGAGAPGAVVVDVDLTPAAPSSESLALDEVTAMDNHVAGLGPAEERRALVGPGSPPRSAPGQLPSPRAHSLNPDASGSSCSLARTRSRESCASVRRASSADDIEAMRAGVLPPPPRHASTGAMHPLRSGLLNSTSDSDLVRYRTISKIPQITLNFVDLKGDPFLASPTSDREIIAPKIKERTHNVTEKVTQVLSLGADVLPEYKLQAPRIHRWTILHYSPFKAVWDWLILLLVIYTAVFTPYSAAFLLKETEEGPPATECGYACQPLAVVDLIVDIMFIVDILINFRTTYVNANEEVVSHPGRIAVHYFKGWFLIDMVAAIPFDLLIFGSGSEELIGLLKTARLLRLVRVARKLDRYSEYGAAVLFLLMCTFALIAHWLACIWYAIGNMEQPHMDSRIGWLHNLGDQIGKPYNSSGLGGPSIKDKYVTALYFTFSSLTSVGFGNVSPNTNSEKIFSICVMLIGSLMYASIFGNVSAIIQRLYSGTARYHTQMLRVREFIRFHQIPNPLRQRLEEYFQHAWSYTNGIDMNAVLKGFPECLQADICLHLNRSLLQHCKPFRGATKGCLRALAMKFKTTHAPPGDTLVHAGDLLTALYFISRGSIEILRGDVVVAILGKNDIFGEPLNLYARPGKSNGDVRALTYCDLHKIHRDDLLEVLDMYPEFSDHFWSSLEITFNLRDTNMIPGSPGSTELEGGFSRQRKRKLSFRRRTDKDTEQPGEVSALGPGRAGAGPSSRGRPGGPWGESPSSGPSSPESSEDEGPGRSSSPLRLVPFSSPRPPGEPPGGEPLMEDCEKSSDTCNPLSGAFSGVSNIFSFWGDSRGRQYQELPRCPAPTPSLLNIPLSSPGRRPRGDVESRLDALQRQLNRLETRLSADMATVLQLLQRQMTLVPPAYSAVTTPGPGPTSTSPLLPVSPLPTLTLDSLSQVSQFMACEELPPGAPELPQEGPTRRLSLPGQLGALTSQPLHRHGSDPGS

SMILES	hERG current change (%, negative = inhibition) at 1uM [%]
COC(=O)CCCC1=CC2=CC(=O)C(C)(OC(=O)c3cccs3)C(=O)C2=CN1CCCCO (centres unmarked)	5.62
COC(=O)C1=C(c2ccc(-c3ccccc3)c(F)c2)C[C@@H]2CC[C@H]1N2C(=O)NCc1cccc2ccccc12	17.9
Cc1nc2cc(NS(=O)(=O)c3ccccc3F)ccc2s1	4.83
CCOC(=O)c1c(NC(=O)c2cccs2)sc(CC)c1-c1cccs1	-10.4
COc1cccc(-c2noc(N)c2C#N)c1	17.5
Cc1ccc(NC(=O)C2C3C=CC(O3)C2C(=O)O)c(C)c1 (centres unmarked)	12.8
COc1cccc(CNC(=O)c2ccc(NC3=NC4CS(=O)(=O)CC4S3)cc2)c1 (centres unmarked)	0.376
COc1nc(/C(N)=N/O)nc(N2CCCCC2)n1	12.3
COc1ccccc1NS(=O)(=O)c1cccc(NC(=O)c2cc3ccccc3oc2=O)c1	19.4
COc1nc(C#N)c(N2CCOCC2)o1	13
COc1ccc(Cn2c3ccc(OC)cc3c3nc4ccccc4nc32)cc1	17.1
Cc1ccc(CSc2[nH]c(=O)ncc2C)cc1	10.8
Cc1cccc(C)c1NC(=O)c1cc(S(=O)(=O)N2CCOCC2)ccc1F	-0.823
NCCCCCC(=O)O	4.53
COc1ccc(N(C(=O)c2ccc3c(c2)OCO3)C2C=CS(=O)(=O)C2)c(OC)c1 (centres unmarked)	-0.281
c1ccc2oc(-c3nn4c(Cn5cnc6ccccc65)nnc4s3)cc2c1	7.33
CN(C)S(=O)(=O)c1cccc(NC(=O)CCc2nc3sc4c(c3c(=O)[nH]2)CCCC4)c1	2
Cc1cccc(NC(=O)c2ccc(S(=O)(=O)NCc3ccco3)cc2)n1	1.74
O=C(CN1C(=O)c2ccccc2C1=O)N1CCN(c2ccccc2)CC1	-0.891
O=[N+]([O-])c1cc(S(=O)(=O)N2CCCC2)ccc1NN=C1CCCCC1	12.5
CCc1ccc(CN(Cc2cccnc2)C(=O)/C=C/c2ccc(OC)cc2)cc1	12.2
Cc1cc(C)n(CC(=O)c2ccccc2)c(=O)c1C#N	13.8
O=C(CCNS(=O)(=O)c1ccccc1C(F)(F)F)NCCCc1ccccc1	8.65

SMILES	hERG current change (%, negative = inhibition) at 1uM [%]
O=c1c(-c2ccccc2Cl)c[nH]n1-c1ccccc1	7.14
c1ccc2c(c1)NCC1CCCN21 (centres unmarked)	11.7
NS(=O)(=O)c1ccc(N2N=C(c3ccccc3)CC2c2ccccc2)cc1 (centres unmarked)	4.5
Cc1ccc([N+](=O)[O-])cc1NC(=O)CN(C)CCOc1ccccc1.O=C(O)C(=O)O	12.1
CC1=C(C(=O)Nc2ccccc2)C(c2ccco2)C(C#N)=C(SCC(=O)Nc2cccc(C)c2C)N1 (centres unmarked)	17.4
CSCCC(=O)N1CCCC(CNC(=O)c2ccccc2Cl)C1 (centres unmarked)	8.78
COc1ccc2[nH]c(=O)c(CNc3ccc(C)cc3C)cc2c1	5.37
COc1ccc(Cc2n[nH]c(=O)c3ccccc23)cc1OC	2.57
NC(=O)c1cc2ccccc2o/c1=N/NC(=O)c1cccc(F)c1	6.98
O=C(NCC1CC1)C1(C(F)(F)F)CC(CCc2ccccc2)CCCO1 (centres unmarked)	13.7
Cn1nc(N)c2c1N=P(N1CCOCC1)(N1CCOCC1)N=C2c1ccccc1	8.58
Cc1cc(C(=O)COC(=O)c2ccc[nH]c2=O)c(C)n1C1CC1	2.46
Cc1ccccc1-n1c(-c2ccncc2)n[nH]c1=S	4.45
COc1ccc(CN2CCN(CCSc3ccc(C)cc3)CC2)c(OC)c1OC.O=C(O)C(=O)O	-9.33
CC(NC(=O)CNC(=O)c1cccc(Cl)c1)c1ccccc1 (centres unmarked)	11.2
Cc1ccc(CC(=O)Nc2cccc([N+](=O)[O-])c2)cc1	9.09
CCn1cc(/C=N/NS(=O)(=O)c2ccc(OC)cc2)c(C)n1	8.95
CCOC(=O)c1cc(-c2ccccc2)n[nH]1	15
O=C1CC(N2CCSCC2)C(=O)N1c1ccccc1 (centres unmarked)	17.6
Cn1c(N)c(C(=O)CCl)c(=O)n(Cc2ccccc2)c1=O	12.5
CC(C)Oc1ccc(C(=O)CCN2CCOCC2)cc1	13.6
O=C(O)CCC(=O)N(Cc1ccco1)c1nc(-c2ccccc2)cs1	-5.17
CCOc1cc(-c2nc(-c3ccc(OC)cc3)no2)cc(OCC)c1OCC	9.95

SMILES	hERG current change (%, negative = inhibition) at 1uM [%]
O=c1nc2ccccn2c2ccc(S(=O)(=O)N3CCCCC3)cc12	12.6
COc1cc(C(=O)NNC(=O)c2cc(C)[nH]n2)cc(OC)c1OC	13.5
O=C(CSc1nnc(CNc2ccccc2)o1)N1CCc2ccccc21	0.363
CC(=O)c1cn(CC(=O)Nc2ccccc2C)c2ccccc12	19.2
Cc1ccc(S(=O)(=O)CCC(=O)Nc2cccc(C)c2)cc1	12.4
Cc1ccc(NC2CCCN(C(=O)CN3C(=O)CSC3=O)C2)cc1C (centres unmarked)	12.7
Cc1cccc(C)c1NC(=O)COC(=O)c1ccccc1Nc1ccccc1	12.3
COc1cc(S(=O)(=O)N2CC(=O)Nc3ccccc32)ccc1NC(C)=O	11.8
Cc1ccn(-c2ccc(NC(=O)c3cccs3)cc2)n1	6.58
Clc1ccccc1OCCCCN1CCNCC1.O=C(O)C(=O)O	15.3
COc1ccc(CNC(=O)Nc2cc(C)cc(C)c2)cc1	9.48
Cc1ccc(/C=N/n2cnnc2)s1	-13.5
NC(=O)CC(NC(=O)c1cccc(Br)c1)c1ccc(N2CCC(Br)CC2)c([N+](=O)[O-])c1 (centres unmarked)	10.7
Cc1cccc(N2N=C(C(=O)N3CC(=O)Nc4ccccc43)CCC2=O)c1	12.8
CCSC1=NC2(CCCCC2)[NH2+]c2sc3c(c21)CCCC3.[I-]	13.7
Cc1ccc(S(=O)(=O)N2CCN(S(=O)(=O)N3CCOCC3)CC2)cc1C	8.51
Nc1ncnc(NNC(=O)CNC(=O)c2c(F)cccc2Cl)c1[N+](=O)[O-]	9.74
Cc1cc(O)cc2c1C(c1ccc(F)cc1)CC1(CC(C)(C)NC(=S)N1)O2 (centres unmarked)	13.2
CCOC(=O)Cn1cnc(-c2ccc([N+](=O)[O-])cc2)c1	5.86
CC(C)c1nn2c(=O)cc(CSc3ccccc3NC(=O)c3ccccc3F)nc2s1	4.94
COC(=O)CN(n1cnnc1)S(=O)(=O)c1ccc(C)cc1	10.2
COc1cccc(C(=O)COC(=O)c2ccc(NC(=O)c3ccccc3)cc2)c1	13.7
Cc1ccccc1CN(C)C(C)C(=O)Nc1ccccc1F (centres unmarked)	7.42

SMILES	hERG current change (%, negative = inhibition) at 1uM [%]
COC(=O)[C@H]1[C@@H](C)N(Cc2ccccc2)C(=O)N[C@H]1c1ccccc1	10.2
COCCOc1ccc(C(F)(F)F)cc1NC(=O)c1ccc(C(F)(F)F)cc1	4.7
Cc1nc(-c2cccc(NC(=O)c3ccc(-n4cccn4)cc3)c2)cs1	12.6
Cc1cc(C(=O)N2CCN(C(c3ccccc3)c3ccccc3)CC2)no1	4.49
O=C(CS(=O)(=O)c1cn(CC(=O)N2CCOCC2)c2ccccc12)Nc1ccccc1	9.5
CCOC(=O)CNC(=O)C1CCC(CNS(=O)(=O)c2cccc3nsnc23)CC1 (centres unmarked)	19.5
Cc1ccc(O)c(CP(=O)(c2ccccc2)c2ccccc2)c1	3.31
CC1=NN(C(=O)CCc2ccc3c(c2)OCO3)C(O)(C(F)(F)F)C1 (centres unmarked)	19.1
CC(Nc1ccccc1CO)C(=O)Nc1cccc(Cl)c1Cl (centres unmarked)	11.4
COc1ccc(-c2c(C#N)c(C)nc3c2C(=O)c2ccccc2-3)cc1	7.82
Cn1c(=O)n(Cc2ccc(Br)cc2)c2ccccc21	6.61
COc1ccc(NC(=O)C/C(C)=N/NC(=O)CCc2ccccc2)c(OC)c1	11.6
COc1ccccc1N(C(=O)NCc1ccccc1)C1=NCC(C)S1 (centres unmarked)	17.5
CC(=O)c1c(C)[nH]c(C(=O)COC(=O)CN(C)S(=O)(=O)c2ccc(Cl)cc2)c1C	4.01
COC(=O)c1ccc(OC)c(CSc2nnc(COc3ccc(Cl)cc3)o2)c1	-9.46
COC(=O)c1ccc(Cn2nnc3ccccc32)cc1	12
COc1ccc(S(=O)(=O)NCC2CCC(C(=O)NCCCN3CCCC3=O)CC2)cc1 (centres unmarked)	17
O=C(O)Cc1ccc(NC(=O)Cc2ccc3ccccc3c2)cc1	15.2
CSc1ccccc1NC(=O)CN(C)CC(=O)Nc1ccc(N2CCOCC2)cc1	-4.34
COC(=O)C1C(c2ccc(Br)cc2)Nc2nnc(C(F)(F)F)n2C1(C)O.Cl (centres unmarked)	1.93
